{"source": "PubChem BioAssay (EPA / NIEHS)", "key": {"[1]": {"assay": "APR_HepG2_MitoticArrest_72hr: Apredica 72-hour HepG2 Assay for Mitotic Arrest (AID 2282918)", "conditions": "high-content imaging, actives raise or lower the signal", "summary_of_the_method": "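HepG2 cells treated 72 h at 0.39–200 uM, 0.5% DMSO final; formaldehyde-fixed, stained with Hoechst 33342 and phospho-histone H3 antibody, imaged by high-content fluorescence; bidirectional fit versus DMSO.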"}, "[2]": {"target": "human Retinoid X Receptor beta (RXRb), RXRB (gene 6257) (UniProt P28702)", "sequence (P28702 whole entry, looked up, the tested form may be a part)": "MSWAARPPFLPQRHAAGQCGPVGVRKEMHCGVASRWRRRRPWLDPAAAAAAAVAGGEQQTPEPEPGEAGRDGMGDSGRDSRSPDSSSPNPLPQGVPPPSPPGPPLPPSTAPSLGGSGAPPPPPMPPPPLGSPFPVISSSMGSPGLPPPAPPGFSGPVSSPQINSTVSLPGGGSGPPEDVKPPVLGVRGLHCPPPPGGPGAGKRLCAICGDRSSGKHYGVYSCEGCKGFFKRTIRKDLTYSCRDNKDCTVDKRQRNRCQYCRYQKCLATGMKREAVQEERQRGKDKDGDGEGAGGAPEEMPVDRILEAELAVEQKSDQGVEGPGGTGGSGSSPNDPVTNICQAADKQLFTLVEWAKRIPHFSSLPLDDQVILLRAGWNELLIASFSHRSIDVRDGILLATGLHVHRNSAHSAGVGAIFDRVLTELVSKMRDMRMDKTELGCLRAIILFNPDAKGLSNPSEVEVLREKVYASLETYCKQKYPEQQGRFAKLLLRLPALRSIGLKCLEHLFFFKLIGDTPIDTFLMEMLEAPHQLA", "assay": "ATG_RXRb_TRANS: Attagene TRANS-FACTORIAL HepG2 Assay for human Retinoid X Receptor beta (RXRb) (AID 2283013; active = hit-call score of the fitted dose curve at least 0.9, where 1 is the maximum)", "summary_of_the_method": "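After a 24 h incubation with test chemical, transfected HepG2 cells carrying NR-Gal4 fusions and GAL4-UAS reporter transcription units yield RNA whose reporter cDNA is FAM-labelled, HpaI-cut and sized by capillary electrophoresis; increases over DMSO are scored.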"}, "[3]": {"read-out": "Thrombomodulin, THBD (gene 7056)", "assay": "BSK_CASM3C_Thrombomodulin: BioMAP Diversity Plus: CASM3C Assay for Thrombomodulin Biomarker Activity (AID 2283051)", "conditions": "actives raise or lower the signal; primary human coronary artery smooth muscle cells"}, "[4]": {"read-out": "Interferon-gamma inducible Protein 10 (IP10), CXCL10 (gene 3627)", "assay": "BSK_hDFCGF_IP10: BioMAP Diversity Plus: hDFCGF Assay for Interferon-gamma inducible Protein 10 (IP10) Biomarker Activity (AID 2283053)", "conditions": "actives raise or lower the signal; primary human foreskin fibroblasts", "summary_of_the_method": "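Chemical-treated human skin fibroblasts (primary) were sampled at 24 h for IP-10 by ELISA. Both increases and decreases relative to DMSO were scored.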"}, "[5]": {"read-out": "Collagen III, COL3A1 (gene 1281)", "assay": "BSK_hDFCGF_CollagenIII: BioMAP Diversity Plus: hDFCGF Assay for Collagen III Biomarker Activity (AID 2283056)", "conditions": "actives raise or lower the signal; primary human foreskin fibroblasts", "summary_of_the_method": "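Human foreskin fibroblast primary cultures sampled 24 h after dosing; Collagen III quantified by ELISA. Signal fitted bidirectionally against DMSO baseline.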"}, "[6]": {"assay": "BSK_hDFCGF_SRB: Viability Assessment in the BioMAP Diversity Plus: hDFCGF Assay (AID 2283061);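 also: cells exposed to compound for 24 h before the read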", "conditions": "primary human foreskin fibroblasts", "summary_of_the_method": "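Human foreskin fibroblasts in 96-well plates were treated 24 h. Total protein was measured by 0.1% SRB staining after 10% TCA fixation, read at 560 nm. Data were fitted bidirectionally against DMSO.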"}, "[7]": {"read-out": "Intercellular Adhesion Molecule 1 (ICAM1), ICAM1 (gene 3383)", "assay": "BSK_KF3CT_ICAM1: BioMAP Diversity Plus: KF3CT Assay for Intercellular Adhesion Molecule 1 (ICAM1) Biomarker Activity (AID 2283067)", "conditions": "actives raise or lower the signal; primary human keratinocytes with fibroblasts", "summary_of_the_method": "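Human keratinocyte–foreskin fibroblast co-culture was treated for 24 h. Cell-surface ICAM-1 was quantified by ELISA, fitted bidirectionally relative to DMSO. Cytotoxicity was checked in parallel cultures by SRB total-protein staining.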"}, "[8]": {"read-out": "Interferon-gamma inducible Protein 10 (IP10), CXCL10 (gene 3627)", "assay": "BSK_KF3CT_IP10: BioMAP Diversity Plus: KF3CT Assay for Interferon-gamma inducible Protein 10 (IP10) Biomarker Activity (AID 2283068)", "conditions": "actives raise or lower the signal; primary human keratinocytes with fibroblasts", "summary_of_the_method": "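KF3CT co-culture (keratinocytes + foreskin fibroblasts), 24 h compound, IP-10 by ELISA; bidirectional fit vs DMSO baseline.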"}, "[9]": {"read-out": "TIMP metallopeptidase inhibitor 2 (TIMP2), TIMP2 (gene 7077)", "assay": "BSK_KF3CT_TIMP2: BioMAP Diversity Plus: KF3CT Assay for TIMP metallopeptidase inhibitor 2 (TIMP2) Biomarker Activity (AID 2283071)", "conditions": "actives raise or lower the signal; primary human keratinocytes with fibroblasts", "summary_of_the_method": "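Measurements come from ELISA detection of TIMP-2 at 24 hours in a dosed human keratinocyte and foreskin fibroblast co-culture. DMSO serves as negative control and baseline.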"}, "[10]": {"read-out": "C-C motif chemokine 2 (Homo sapiens) (UniProt P13500)", "assay": "BSK_KF3CT_MCP1: BioMAP Diversity Plus: KF3CT Assay for Monocyte Chemoattractant Protein 1 (MCP1/CCL2) Biomarker Activity (AID 2283073)", "conditions": "actives raise or lower the signal; primary human keratinocytes with fibroblasts", "summary_of_the_method": "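Human keratinocyte–foreskin fibroblast co-culture; MCP-1 measured by ELISA 24 h after dosing. Bidirectional fit vs DMSO; cytotoxicity tracked by SRB total protein in parallel cultures.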"}, "[11]": {"read-out": "Matrix Metallopeptidase 9 (MMP9), MMP9 (gene 4318)", "assay": "BSK_KF3CT_MMP9: BioMAP Diversity Plus: KF3CT Assay for Matrix Metallopeptidase 9 (MMP9) Biomarker Activity (AID 2283074)", "conditions": "actives raise or lower the signal; primary human keratinocytes with fibroblasts", "summary_of_the_method": "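ELISA read-out of MMP-9 at 24 h post-dosing in a co-culture of human skin keratinocytes and foreskin fibroblasts. Gain or loss of signal was fitted in both directions against DMSO.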"}, "[12]": {"assay": "BSK_LPS_PGE2: BioMAP Diversity Plus: LPS Assay for Prostaglandin E2 (PGE2) Biomarker Activity (AID 2283082)", "conditions": "actives raise or lower the signal; primary human HUVEC with PBMC", "summary_of_the_method": "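Primary human endothelial cells and blood mononuclear cells, co-cultured with LPS, receive test chemical; PGE2 ELISA follows at 24 h, with SRB-stained parallel cultures flagging cytotoxicity.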"}, "[13]": {"test_system": "guinea pig Leukotriene B4 Receptor (LTB4), gene 100379538", "assay": "NVS_GPCR_gLTB4: NovaScreen (NVS) G Protein-Coupled Receptor Assay for guinea pig Leukotriene B4 Receptor (LTB4) (AID 2283247; active = hit-call score of the fitted dose curve at least 0.9, where 1 is the maximum)", "summary_of_the_method": "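Membranes from guinea pig spleen incubated 2 h with radioligand and compound; bound counts measured by filtration and scintillation. Screened first at 25 uM in duplicate, then actives titrated to a 50 uM top concentration relative to DMSO.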"}, "[14]": {"target": "Glucocorticoid receptor (Homo sapiens) (UniProt P04150)", "sequence (P04150 whole entry, looked up)": "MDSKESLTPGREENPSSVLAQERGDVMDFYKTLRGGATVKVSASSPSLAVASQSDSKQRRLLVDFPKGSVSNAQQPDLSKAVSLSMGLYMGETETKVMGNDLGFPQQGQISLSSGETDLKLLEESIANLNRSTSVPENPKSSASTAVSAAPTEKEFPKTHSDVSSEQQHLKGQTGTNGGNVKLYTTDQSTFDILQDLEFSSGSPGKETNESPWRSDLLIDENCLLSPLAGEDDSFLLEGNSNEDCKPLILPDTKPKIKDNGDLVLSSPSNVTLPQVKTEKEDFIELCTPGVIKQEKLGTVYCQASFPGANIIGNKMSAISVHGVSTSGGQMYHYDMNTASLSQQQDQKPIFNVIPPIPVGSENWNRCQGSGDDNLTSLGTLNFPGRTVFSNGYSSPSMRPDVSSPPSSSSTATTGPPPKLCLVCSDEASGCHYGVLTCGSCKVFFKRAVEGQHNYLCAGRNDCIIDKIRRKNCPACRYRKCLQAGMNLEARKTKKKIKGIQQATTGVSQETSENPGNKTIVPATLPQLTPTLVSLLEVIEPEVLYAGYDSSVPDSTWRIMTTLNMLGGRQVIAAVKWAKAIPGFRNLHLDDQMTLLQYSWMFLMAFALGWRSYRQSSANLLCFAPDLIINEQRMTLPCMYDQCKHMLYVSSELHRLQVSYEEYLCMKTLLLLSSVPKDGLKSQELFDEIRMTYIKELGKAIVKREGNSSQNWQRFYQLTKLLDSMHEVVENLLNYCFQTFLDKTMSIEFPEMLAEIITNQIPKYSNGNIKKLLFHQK", "assay": "NVS_NR_hGR: NovaScreen (NVS) Nuclear Receptor Binding Assay for human Glucocorticoid Receptor (GR) (AID 2283363; active = hit-call score of the fitted dose curve at least 0.9, where 1 is the maximum)", "summary_of_the_method": "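Filter scintillation readout of tritiated/iodinated radioligand displaced by test chemical; cell-free extracted protein; 16 h. DMSO = negative control/baseline. Duplicate single-point 25 uM screen, then concentration-response on actives.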"}, "[15]": {"assay": "ATG_XTT_Cytotoxicity: Cytotoxicity Assessment in the Attagene TRANS-FACTORIAL HepG2 Assay (AID 2283584; active = hit-call score of the fitted dose curve at least 0.9, where 1 is the maximum;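 also: cells exposed to compound for 24 h before reading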)", "summary_of_the_method": "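HepG2 cells transiently transfected with GAL4-UAS multiple reporter units, dosed 24 h; cytotoxicity read by XTT as loss of signal versus DMSO baseline.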"}}, "note": "The source holds more than one record for some entries. The list is limited to them. An entry can have further records. Values that stand side by side are repeats in other runs, samples, wells, individuals or studies. Results filed as inconclusive are left out. The calls were made as follows, unless noted: active = hit-call score of the fitted dose curve at least 0.9, where 1 is the maximum; inactive = score below 0.9. Brackets with × stand for listed records that agree. More than one record can exist for a structure, and the calls need not agree."}
{"smiles": "Oc1ccc(Cl)cc1Cc1ccccc1", "values": [{"measurement": "AC50", "setting": "[1]", "result": "active: 101, 74.1, 27.8, 72.3 µM [separate samples]"}, {"measurement": "AC50", "setting": "[2]", "result": "active: 5.64, 6.82, 7.31, 4.94, 6.81, 4.52, 4.25, 3.9, 2.36 µM [separate samples]"}, {"measurement": "AC50", "setting": "[3]", "result": "active: 4.69, 4.9, 13.2, 6.77, 25 µM [separate samples]"}, {"measurement": "AC50", "setting": "[4]", "result": "active: 27.1, 10.9, 14.8, 24.2, 8.74, 25.4, 29 µM [separate samples]"}, {"measurement": "AC50", "setting": "[5]", "result": "active: 15.3, 8.78, 29.3, 15.1, 9.38, 13.5, 28.6 µM [separate samples]"}, {"measurement": "AC50", "setting": "[6]", "result": "active: 29.6, 12.7, 18.5, 19.1, 8.05, 16.8, 28.9 µM [separate samples]"}, {"measurement": "AC50", "setting": "[7]", "result": "active: 31.4, 38.2, 39.2, 32.2, 8.88, 31.7, 36.7 µM [separate samples]"}, {"measurement": "AC50", "setting": "[8]", "result": "active: 37.8, 32.3, 37.9, 29.3, 9.81, 28.7, 29.6 µM [separate samples]"}, {"measurement": "AC50", "setting": "[9]", "result": "active: 32.5, 29.8, 34.7, 25.4, 6.4, 24, 31 µM [separate samples]"}, {"measurement": "AC50", "setting": "[10]", "result": "active: 32.8, 28.9, 31.9, 29.5, 9.68, 29.1, 30 µM [separate samples]"}, {"measurement": "AC50", "setting": "[11]", "result": "active: 31.2, 27.6, 32.4, 25.7, 7.03, 26.1, 28.5 µM [separate samples]"}, {"measurement": "AC50", "setting": "[12]", "result": "active: 12.7, 5.24, 3.49, 3.34, 3.36, 3.66, 4.24 µM [separate samples]"}, {"measurement": "AC50", "setting": "[13]", "result": "active: 20, 25.2 (2×), 5.01 (2×), 20.8 µM [separate samples]"}, {"measurement": "AC50", "setting": "[14]", "result": "active: 6.51, 25.2 (2×), 16.3, 14.8, 17.4, 8.65 µM [separate samples]"}, {"measurement": "AC50", "setting": "[15]", "result": "active: 132, 54.5, 144, 40.1 µM [separate samples]"}]}
